Laboratory results: publication PMC8125308
Results are given in words; binding and its absence hold for the method and conditions named. Binding seen in cells or lysates may run through a third protein. Some entries that bind do so weakly or less than the wild type.

Protein sequences, listed by entry. Tags and fused reporters are not part of them. Lines headed by an entry give the natural chain unless they say otherwise; changes in a name come on top.
UniProt P51149: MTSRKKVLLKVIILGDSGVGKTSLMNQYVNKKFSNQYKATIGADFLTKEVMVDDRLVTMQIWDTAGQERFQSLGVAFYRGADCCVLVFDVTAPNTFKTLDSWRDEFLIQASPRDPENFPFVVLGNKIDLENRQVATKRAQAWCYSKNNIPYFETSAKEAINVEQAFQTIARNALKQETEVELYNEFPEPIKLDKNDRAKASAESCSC
UniProt P08670: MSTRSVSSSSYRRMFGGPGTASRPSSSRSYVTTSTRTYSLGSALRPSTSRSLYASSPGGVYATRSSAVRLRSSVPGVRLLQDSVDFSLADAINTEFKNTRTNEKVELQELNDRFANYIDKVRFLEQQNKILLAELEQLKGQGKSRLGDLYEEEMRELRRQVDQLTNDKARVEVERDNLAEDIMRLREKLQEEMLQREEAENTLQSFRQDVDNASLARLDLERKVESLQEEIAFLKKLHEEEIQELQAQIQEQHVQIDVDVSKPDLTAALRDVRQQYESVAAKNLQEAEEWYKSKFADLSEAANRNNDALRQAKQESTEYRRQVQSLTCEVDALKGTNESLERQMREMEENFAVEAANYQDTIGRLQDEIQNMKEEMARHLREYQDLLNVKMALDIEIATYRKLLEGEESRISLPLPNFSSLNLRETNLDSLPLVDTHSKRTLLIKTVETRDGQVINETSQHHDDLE

Legend:
[1] = molecular target: His-tagged RAB7A wild type (UniProt P51149); test: pull-down; 20 µg His-tagged RAB7A bound to Ni-NTA resin, incubated 1 h at 4 °C with total extracts of HeLa cells overexpressing HA-tagged vimentin; blots with anti-HA and anti-RAB7A; only the target purified
[2] = molecular target: HA-tagged RAB7A wild type (UniProt P51149); test: co-IP; HeLa cells co-expressing HA-tagged RAB7A and myc-tagged vimentin; lysis in 0.5% NP-40, 25 mM Tris pH 7.5, 100 mM NaCl; anti-HA resin, 1 h at 4 °C; blots with anti-myc and anti-HA
[3] = molecular target: HA-tagged RAB7A Y183F (UniProt P51149); test: as above

Substance	binding [2]	other results
HA-tagged vimentin (from UniProt P08670 1-466)		binding [1]: binds
myc-tagged vimentin 1-141 (from UniProt P08670 1-141) (domain or fragment)	binds	
myc-tagged vimentin 1-256 (from UniProt P08670 1-256) (domain or fragment)	binds	
myc-tagged vimentin 256-411 (from UniProt P08670 256-411) (domain or fragment)	no binding	
myc-tagged vimentin 256-466 (from UniProt P08670 256-466) (domain or fragment)	no binding	
myc-tagged vimentin wild type (from UniProt P08670 1-466)		binding [3]: no binding

Continued, in another order:

binding [2]	Substance	other results
binds	myc-tagged vimentin 92-256 (from UniProt P08670 92-256) (domain or fragment)	
binds	myc-tagged vimentin 142-256 (from UniProt P08670 142-256) (domain or fragment)	
